From PubChem BioAssay AID2010 (Broad Institute, 2009) come the findings set out here.

In all, about 4,100 compounds were measured (“activity change, negative = cytotoxicity”: median about -43, highest 2% from about 39 on). Some of the results follow. Results with a measured potency or affinity are listed apart. Where no call is shown, the source marks the result inconclusive.

The test in a line: cytotoxicity toward NIH3T3 fibroblasts, dose response, counter-screen, cell-based, ATP luminescence, mouse fibroblasts (AID 2010). As to conditions: NIH3T3 viability, ATP luminescence (CellTiter-Glo), 90 h; at 3 µM (top of the series).
`C[C@H]1C[C@@H](C)C(=O)[C@@H]([C@H](O)CC2CC(=O)NC(=O)C2)C1`: the activity change, negative = cytotoxicity is -70.9%.
